Results reported in PubChem BioAssay AID1625 (Sanford-Burnham Center for Chemical Genomics, 2009).
This is one part of the list. Further columns of the screen follow, without active or inactive calls. Most of these compounds were active or inconclusive in the main read-out, so they are no random draw.

Assay: insulin promoter activators in MIN6 cells, imaging, high-content screening, mouse beta cells (AID 1625);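 note: total cells summed across four imaged fields per well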
Conditions: MIN6 insulin promoter-GFP reporter, measured here: cytotoxicity, nuclei count, at 5 µM

Compound	cell count
Fc1ccc2[nH]c3c(N4CCN(C5CCCCC5)CC4)ncnc3c2c1	429 cells
CCC(Oc1ccccc1)C(=O)NCc1ccc(S(N)(=O)=O)cc1 (configuration not stated)	366 cells
COc1ccc(C(=O)c2sc3nc(-c4ccccc4)ccc3c2N)cc1	351 cells
O=C(NCc1cccnc1)c1c[nH]c2cc3c(cc2c1=O)OCCO3	346 cells
C=CCNc1nc2c(c(=O)n(C)c(=O)n2C)n1CCCCCC	400 cells
CC[n+]1c(C=C2C=C(C)OC(C)=C2)sc2ccccc21	392 cells
N#C/C(=C\C1=C(N2CCOCC2)C(=C/c2cccc([N+](=O)[O-])c2)/CC1)C(=O)Nc1ccccc1F	1030 cells
COC(=O)c1ccc(COc2ccc3c(C)c(C)c(=O)oc3c2)o1	1150 cells
CCOC(=O)C1CCN(C(=O)c2sc3nc(C)nc(N4CCC(C)CC4)c3c2C)CC1	329 cells
CN1/C(=C\C(=O)CN2C(=O)NC3(CCCCCC3)C2=O)C(C)(C)c2ccccc21	464 cells
COc1ccc(NC(=O)c2sc3nc(-c4cccnc4)ccc3c2N)cc1	1010 cells
CCOC(=O)COc1ccc(C(=O)NC2CCCCC2)cc1	1490 cells
CC(=O)N1[C@H](Cc2ccccc2)C=C[C@]1(C)C(=O)NCCc1c[nH]c2ccccc12	435 cells
Cc1ccc2nc(/C(C#N)=C\c3ccc([N+](=O)[O-])o3)[nH]c2c1	77 cells
O=[N+]([O-])c1ccc(N/N=C/c2sc(N3CCOCC3)nc2-c2ccccc2)c(S(=O)(=O)Nc2ccc(Cl)cc2)c1	368 cells
CCn1cc(C(=O)NCCN(C)CCc2ccccc2)c(=O)c2cc(S(=O)(=O)N(C)C)ccc21	1560 cells
CCc1cc2c(NCc3ccco3)ncnc2s1	367 cells
O=C(COc1ccc(Cl)cc1)NCc1nnc(SCC(=O)NC2CCCCC2)o1	1190 cells
COc1ccc(-n2c(-c3ccc(Br)cc3)c[n+]3c2SC(C)C3)cc1 (configuration not stated)	378 cells
O=C1S/C(=C/c2ccc(N3CCOCC3)o2)C(=O)N1Cc1ccc(F)cc1	1480 cells
NS(=O)(=O)c1ccc(NC=C2C(=O)OC3(CCCCC3)OC2=O)cc1	1180 cells
Cc1ccc2nc(/C(C#N)=C\c3ccc(N4CCOCC4)o3)[nH]c2c1	951 cells
CC1CCCCC1NS(=O)(=O)c1ccc(S(=O)(=O)NCc2ccncc2)cc1 (configuration not stated)	324 cells

Compound	cell count
Cc1cc(NC(=O)CSc2ccc3nnc(-c4ccc(Cl)cc4)n3n2)no1	395 cells
COc1cc2c3nnc(-c4ccc(F)cc4)c-3cn(Cc3ccccc3)c2cc1OC	1820 cells
Cc1ccc(Nc2nc(N)nc(CN3CCN(Cc4ccc5c(c4)OCO5)CC3)n2)c(C)c1	336 cells
CC1=CN2C(=N)/C(=C/c3ccc([N+](=O)[O-])o3)C(=O)N=C2S1	515 cells
CCC(C)NS(=O)(=O)c1ccc(S(=O)(=O)N2CCCC3(CCCCC3)C2)cc1 (configuration not stated)	486 cells
CC(C)(C)c1ccccc1OCC(=O)Nc1ncn[nH]1	379 cells
CCCCN1C(=O)C2(NNc3ccccc3O2)c2ccccc21 (configuration not stated)	694 cells
O=S(=O)([O-])CCC[n+]1c(/C=C\Nc2ccccc2)oc2ccc(-c3ccccc3)cc21	1060 cells
Nc1ccc2c(c1)Cc1cc([N+](=O)[O-])ccc1-2	1180 cells
Cc1cccc(N=Cc2[nH]c3ccc(Br)c(Cl)c3c2O)c1	1300 cells
Cc1cc(C)c2sc(NNC(=O)c3ccc(S(=O)(=O)N4CCc5ccccc5C4)cc3)nc2c1	366 cells
C(=C\c1nc(N2CCCCCC2)c2ccccc2n1)/c1ccccc1	420 cells
Cc1cc(=O)[nH]c(SCC(=O)/C=C2\N(C)c3ccccc3C2(C)C)n1	268 cells
COc1ccc(C(=O)Nn2cnnc2)cc1OC	877 cells
CN(C)c1nc(N)nc(/C(C#N)=C/C2CC3C=CC2C3)n1 (configuration not stated)	1360 cells
O=C(COC(=O)Cc1ccccc1[N+](=O)[O-])NCc1ccccc1Cl	453 cells
Cc1nc2ncnn2c(Nc2ccc3c(c2)OCO3)c1Cc1ccccc1	221 cells
CCOc1cc(C)c(S(=O)(=O)Nc2ccc3cn[nH]c3c2)cc1C	1320 cells
COc1ccccc1C(=O)NC(=S)/C=C1/N(C)c2ccccc2C1(C)C	498 cells
Oc1c(N=Nc2ccccn2)ccc2ccccc12	251 cells
Cc1ccccc1NCC(=O)N/N=C/c1c[nH]c2ccccc12	1130 cells
CCOC(=O)c1cc(C(C)(C)C)oc1CNC(=O)c1c(C)oc2c1CCCC2	452 cells
CCN(CC)c1ccc(/C=C(/C#N)C(=O)NC(C)C)o1	1550 cells

Compound	cell count
CCCCCCCCCCn1ccc(=N)cc1	233 cells
COC(=O)c1ccc2c(c1)C(C)(C)C(/C=C/c1ccccc1O)=[N+]2C	392 cells
Cn1c(/C(C#N)=C/c2ccc(-c3ccc(S(N)(=O)=O)cc3)o2)nc2ccccc21	962 cells
O=C(CN(c1cccc(C(F)(F)F)c1)S(=O)(=O)c1ccc(Cl)c([N+](=O)[O-])c1)NCc1ccccc1Cl	285 cells
Cc1cccc(NS(=O)(=O)c2ccc(C3CCCCC3)cc2)c1	431 cells
Cc1cc2nc3c(=O)n(C4CCCCC4)c(=O)[nH]c3nc2cc1N	1220 cells
Cc1ccc2[nH]c(-c3ccccc3)c(CN(C)C)c(=O)c2c1	1280 cells
OC(COc1cccc2ccccc12)CN1CCN(c2ccccc2Cl)CC1 (configuration not stated)	520 cells
CCOC(=O)C(=Cc1cc(=O)c(OC)co1)C(=O)OCC	474 cells
CCCCCCn1ccc(=N)cc1	221 cells
CC(C)C(c1nnnn1C1CCCC1)N1CCOCC1 (configuration not stated)	1430 cells
Cc1cccc(N2CCN(C(=O)CSCc3c(C)noc3C)CC2)c1C	259 cells
Cc1ccc(Nc2nc(-c3c(C)nc4ccccn34)cs2)cc1	424 cells
C=CCSc1nnc(NC(=O)c2cccc(S(=O)(=O)N3CCOCC3)c2)s1	1310 cells
CC(=O)c1c(COC(=O)c2ccncc2)nc2ccccc2[n+]1[O-]	967 cells
CCc1ccc(-c2nc(CN3CCC(C(=O)N4CCN(c5ccccc5)CC4)CC3)c(C)o2)cc1	496 cells
Cn1nc(-c2ccc(OCC(=O)NCC3CCCO3)cc2)c2ccccc2c1=O (configuration not stated)	364 cells
O=C(O)c1ccccc1N/N=C/c1c(Sc2nnnn2-c2ccccc2)nc2ccccn2c1=O	1410 cells
OCc1ccc(O)c2ncccc12	328 cells
O=C(NN=C1CCN(Cc2ccccc2)CC1)c1cccc(S(=O)(=O)Nc2ccccc2Cl)c1	1450 cells
COc1ccc(C2NCCc3c2[nH]c2ccccc32)cc1CN1CCc2cc(OC)c(OC)cc2C1C (configuration not stated)	445 cells
